Lines with a small IC50 respond at low doses; where the fit passes the top or lowest dose, that dose stands as a limit. The AUC spans the tested range (256-fold, ending at the top dose) of the same fit: 1 means no effect, lower means more sensitive. Where the top dose is marked as inferred, it comes from the curve model; the source does not state it. For part of these data: Where an entry number is given, a second screen of the drug exists; the two often differ.
Tests used:
AICAR = compound: NC(=O)c1ncn([C@@H]2O[C@H](CO)[C@@H](O)[C@H]2O)c1N [AICAR]; experiment: Viability of human cancer cell lines after 72 h of drug (GDSC screen); settings: top dose 2000 µM; top dose inferred
Experimental: (§1)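 Human cancer cell lines in 384-well plates, medium with 10% serum, drug for 72 h over a 256-fold dose range (nine 2-fold or five 4-fold steps up to the top dose). Adherent lines were fixed and stained with the nucleic acid dye Syto60, suspension lines read with resazurin; signal relative to control wells, capped at 0 and 100%. One two-parameter sigmoid per drug and line, fitted in a mixed model over all curves with the slope shared within a line.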

AKT inhibitor VIII = compound: O=c1[nH]c2ccccc2n1C1CCN(Cc2ccc(-c3[nH]c4cc5ncnc5cc4nc3-c3ccccc3)cc2)CC1 [AKT inhibitor VIII]; experiment: as above; settings: top dose inferred
Experimental: as §1

[1] = top dose 2.56 µM, screen: GDSC drug entry 171
[2] = top dose 10.24 µM, screen: GDSC drug entry 228

Cell Line | AUC (AICAR) | IC50 (AICAR) [µM] | AUC (AKT inhibitor VIII; [1]) | IC50 (AKT inhibitor VIII; [1]) [µM] | AUC (AKT inhibitor VIII; [2]) | IC50 (AKT inhibitor VIII; [2]) [µM]
MDA-MB-415 (breast, adherent) | 0.748 | 840 | 0.794 | 1.66 | 0.86 | > 10.2
MDA-MB-436 (breast, adherent) | 0.929 | > 2000 | 0.946 | > 2.56 | 0.946 | > 10.2
MDA-MB-468 (breast, adherent) | 0.89 | > 2000 | 0.889 | > 2.56 | 0.873 | 9.19
MDST8 (large intestine, adherent) | 0.657 | 339 | 0.981 | > 2.56 | 0.973 | > 10.2
ME-1 (acute myeloid leukaemia, suspension) | 0.649 | 334 | 0.98 | > 2.56 | 0.916 | > 10.2
ME-180 (cervix, adherent) | 0.666 | 371 | 0.856 | 2.21 | 0.663 | 1.85
MEL-JUSO (melanoma, adherent) | 0.97 | > 2000 | 0.861 | > 2.56 | 0.854 | 9.67
MES-SA (uterus, adherent) | 0.922 | > 2000 | 0.892 | 2.24 | 0.852 | 6.19
MFE-280 (endometrium, adherent) | 0.981 | > 2000 | 0.946 | > 2.56 | 0.757 | 4.41
MFE-296 (endometrium, adherent) | 0.903 | > 2000 | 0.789 | 1.23 | 0.903 | > 10.2
MFH-ino (soft tissue, adherent) | 0.89 | > 2000 | 0.959 | > 2.56 | 0.965 | > 10.2
MFM-223 (breast, adherent) | 0.591 | 221 | 0.989 | > 2.56 | 0.879 | > 10.2
MG-63 (osteosarcoma, adherent) | 0.845 | 1800 | 0.904 | > 2.56 | 0.984 | > 10.2
MHH-ES-1 (Ewing sarcoma, adherent) | 0.832 | 1260 | 0.86 | 2.11 | 0.676 | 1.97
MHH-NB-11 (neuroblastoma, adherent) | 0.731 | 611 | 0.981 | > 2.56 | 0.969 | > 10.2
MHH-PREB-1 (B-cell leukaemia, suspension) | 0.746 | 580 | 0.97 | > 2.56 | 0.764 | 3.35

Cell Line | AUC (AICAR) | IC50 (AICAR) [µM] | AUC (AKT inhibitor VIII; [1]) | IC50 (AKT inhibitor VIII; [1]) [µM] | AUC (AKT inhibitor VIII; [2]) | IC50 (AKT inhibitor VIII; [2]) [µM]
MIA-PaCa-2 (pancreas, adherent) | 0.908 | > 2000 | 0.965 | > 2.56 | 0.94 | > 10.2
MKN28 (stomach, adherent) | 0.774 | 805 | 0.932 | > 2.56 | 0.955 | > 10.2
MKN45 (stomach, adherent) | 0.972 | > 2000 | 0.971 | > 2.56 | 0.835 | 9.36
MMAC-SF (melanoma, adherent) | 0.962 | > 2000 | 0.979 | > 2.56 | 0.877 | > 10.2
MN-60 (B-cell leukaemia, suspension) | 0.957 | > 2000 | 0.977 | > 2.56 | 0.69 | 2.23
MOG-G-CCM (glioma, adherent) | 0.913 | > 2000 | 0.958 | > 2.56 | 0.889 | > 10.2
MOG-G-UVW (glioma, adherent) | 0.902 | > 2000 | 0.915 | > 2.56 | 0.822 | 5.79
MOLM-13 (acute myeloid leukaemia, suspension) | 0.579 | 202 | 0.944 | > 2.56 | 0.35 | 0.253
MOLT-4 (lymphoblastic leukaemia, suspension) | 0.649 | 296 | 0.97 | > 2.56 | 0.422 | 0.408
MRK-nu-1 (breast, suspension) | 0.882 | 1820 | 0.99 | > 2.56 | 0.974 | > 10.2
MS751 (cervix, adherent) | 0.806 | 922 | 0.986 | > 2.56 | 0.982 | > 10.2
MS-1 (small cell lung carcinoma, suspension) | 0.664 | 339 | 0.982 | > 2.56 | 0.913 | > 10.2
MSTO-211H (mesothelioma, adherent) | 0.868 | 1540 | 0.989 | > 2.56 | 0.991 | > 10.2
MV-4-11 (leukaemia, suspension) | 0.442 | 89.6 | 0.946 | > 2.56 | 0.689 | 1.93
MY-M12 (leukaemia, suspension) | 0.544 | 168 | 0.863 | > 2.56 | 0.721 | 2.98
MZ1-PC (pancreas, adherent) | 0.881 | > 2000 | 0.933 | > 2.56 | 0.828 | 8.52

Reference: the supplement of paper PMC4967469
